In the supplement of paper PMC3334620:
In all, about 33,000 sequences were measured (“E-score (-0.5 to 0.5)”: median about -0.011, highest 2% from about 0.28 on). The list shows a part of the results.

The sequences below were run against T1, Gcr1 (UniProt P07261) (assay: PBM E-score (8-mer binding enrichment) (E-score (-0.5 to 0.5)); higher = stronger / more preferred TF binding; most listed sequences are background and not binding sites). Conditions: protein concentration: 100 nM; construct: GST-full length.
T1 sequence: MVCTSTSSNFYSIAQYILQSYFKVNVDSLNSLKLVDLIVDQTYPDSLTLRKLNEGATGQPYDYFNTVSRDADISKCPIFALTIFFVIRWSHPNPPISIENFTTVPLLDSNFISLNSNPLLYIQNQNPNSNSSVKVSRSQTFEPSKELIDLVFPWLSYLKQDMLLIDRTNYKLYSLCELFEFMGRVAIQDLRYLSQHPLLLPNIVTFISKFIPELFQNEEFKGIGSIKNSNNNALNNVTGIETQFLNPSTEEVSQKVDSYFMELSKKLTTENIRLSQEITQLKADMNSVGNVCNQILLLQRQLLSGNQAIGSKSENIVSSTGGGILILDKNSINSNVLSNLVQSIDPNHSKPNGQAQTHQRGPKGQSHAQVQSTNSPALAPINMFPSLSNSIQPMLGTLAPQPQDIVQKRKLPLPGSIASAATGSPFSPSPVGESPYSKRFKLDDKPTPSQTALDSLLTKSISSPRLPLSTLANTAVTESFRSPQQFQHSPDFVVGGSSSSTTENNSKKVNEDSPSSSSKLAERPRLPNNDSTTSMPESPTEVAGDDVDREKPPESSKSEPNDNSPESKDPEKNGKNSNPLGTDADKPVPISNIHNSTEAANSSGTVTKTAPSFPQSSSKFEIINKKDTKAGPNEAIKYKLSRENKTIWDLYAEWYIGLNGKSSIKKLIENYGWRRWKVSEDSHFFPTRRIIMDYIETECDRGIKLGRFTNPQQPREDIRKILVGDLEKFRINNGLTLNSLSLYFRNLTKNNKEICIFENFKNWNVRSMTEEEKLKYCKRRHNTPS
Summary of the method: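 Universal all-10-mer Agilent arrays, fresh or stripped once, were converted to double-stranded form by primer extension. GST-tagged yeast transcription factors from PURExpress in vitro transcription/translation, full-length or DNA-binding domain only, were applied at about 100-200 nM and detected with fluorescent anti-GST. After masliner normalisation, the Universal PBM Analysis Suite scored each ungapped eight-base word together with its reverse complement by E-score.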

Row | Sequence | PBM E-score
1 | CCGAGAGA | 0.153
2 | CGAGTCTA | -0.0668
3 | TCAAATCA | -0.0648
4 | CAAGGGGA | -0.00263
5 | AAGCGCCC | 0.0219
6 | AAAGGGTA | -0.151
7 | AACTGATG | -0.0241
8 | CACGGATG | -0.216
9 | CCATCACA | -0.166
10 | AGGGCCTG | -0.252
11 | GAACATTA | 0.0391
12 | ATTGCCTG | -0.0693
13 | AGTATTAG | 0.0751
14 | AAATCGGC | 0.186
15 | AGCAACCA | 0.349
16 | CGGTGACC | 0.0679
17 | CTGCCCGA | 0.0379
18 | AAAAACCT | 0.0232
19 | AACACCAA | -0.0252
20 | AGTACAAG | 0.154
21 | ATACAACG | 0.0368
22 | ATCATTTC | 0.0852
23 | ACCGAGCG | -0.00066
24 | ACGTACGT | -0.194
25 | ACTACTCA | 0.0669

Row | Sequence | PBM E-score
26 | CGGCCTAG | -0.0643
27 | CTAAAACC | 0.223
28 | AAAGGCAC | 0.182
29 | ACAGCACG | -0.122
30 | CGCGTCGA | -0.215
31 | CGTTCCAC | 0.0103
32 | AGGCCTGG | -0.184
33 | ACACAGCG | -0.0347
34 | TAGTCCAA | -0.0805
35 | GTGATGGA | 0.0992
36 | TCCGTGCA | -0.0337
37 | ACATACGA | 0.0571
38 | ACATCGTA | 0.148
39 | AGTACTGG | 0.0646
40 | TCGTTCCA | -0.00624
41 | ATGTTTGC | -0.235
42 | ATTAAAGA | 0.178
43 | CAAGCCAA | -0.133
44 | GAGTAGCA | -0.0796
45 | ATAGACTC | -0.134
46 | CAACCTTA | 0.00398
47 | CTTAATTA | 0.00266
48 | CAGACTAC | -0.0609
49 | TAAGTACA | -0.00586
50 | GGGTCCAA | 0.176

Row | Sequence | PBM E-score
51 | GGAATAAA | -0.184
52 | CGGACCTA | -0.0122
53 | ATCATAAA | -0.0195
54 | TTCCGAAA | 0.255
55 | CCAAGTTA | 0.169
56 | ATTTAATC | 0.208
57 | CAGGAATA | 0.134
58 | GGTCCGTA | -0.0855
59 | ACACTCCC | -0.194
60 | CATTTTCA | 0.155
61 | GCTTGGGA | 0.0628
62 | ACATCCGG | 0.0345
63 | CGGACGCC | 0.416
64 | ATCAGCAG | -0.0649
65 | CACTGGAG | -0.0119
66 | AGGAGCCT | 0.109
67 | ACAGCGTC | -0.0458
68 | GGATGGAA | 0.0371
69 | AATGGCCT | -0.284
70 | CGTCTGAA | -0.0244
71 | GCGGTGCA | -0.242
72 | ATAGCCAA | -0.101
73 | AATGAGTA | 0.143
74 | ATTAAATG | 0.0781
75 | CTGTACCC | 0.0612

Row | Sequence | PBM E-score
76 | GGTAAAGA | 0.0149
77 | CTGGCTTA | -0.159
78 | GGTTCGCA | -0.0255
79 | AATTTTAA | 0.0234
80 | AACTGGGT | 0.2
81 | ACGATTTG | -0.0181
82 | CTATTAGC | 0.0236
83 | AAATGCCC | -0.175
84 | ACCTTCCG | -0.0645
85 | CGGGCCGA | -0.283
86 | GGTTGTAA | -0.138
87 | TTCAAGAA | 0.0602
88 | CCGAATGC | -0.105
89 | TCCTAGCA | 0.175
90 | TCGAGAAA | 0.0343
91 | AGGGAAGC | 0.281
92 | AGTCAGGA | 0.0997
93 | GAAGGCCC | 0.112
94 | CCTTCCCG | -0.248
95 | CTGCCAAG | 0.0411
96 | AGAAAAAG | 0.0881
97 | GCGGGGAA | 0.0569
98 | AGTTAAGG | -0.16
99 | AGTCTGAG | 0.00427
100 | ATCGCGGG | -0.0646

Row | Sequence | PBM E-score
101 | TAGGAATA | -0.114
102 | ACTGCTCG | -0.0276
103 | CTATTTAA | 0.309
104 | ACATAGCA | -0.0972
105 | GTCTTTAA | 0.0169
106 | CCGTATAG | 0.0155
107 | CCAGTACG | 0.0637
108 | AGACATAA | 0.0136
109 | GCAGAAGA | 0.0794
110 | ATTTTATG | 0.0886
111 | CTACGTGC | 0.0162
112 | CTAGCGAC | 0.0972
113 | AATCCCAG | 0.156
114 | GTGCCCTA | -0.0516
115 | GTCGCTTA | -0.135
116 | TATCGGAA | 0.195
117 | AGTCCATC | -0.0325
118 | GCAGTATA | -0.0897
119 | TCGGCTCA | -0.242
120 | GCCATGGA | -0.0314
121 | GAGTACGA | 0.0845
122 | ACCTGGCT | 0.0813
123 | AACATGAC | 0.0559
124 | CGTCGCGA | -0.0117
125 | GTGGACCA | -0.141

Row | Sequence | PBM E-score
126 | CAAGAAGG | 0.203
127 | AATGTTCA | 0.194
128 | GTCCGTGA | -0.132
129 | CGTCAAGC | -0.061
130 | AGACTGAT | -0.157
131 | GGTCGGTA | -0.2
132 | CGGGGGCC | 0.0873
133 | CACTCTGC | -0.173
134 | GATGCACC | -0.0599
135 | AGGACTAG | 0.0816
136 | ACTGCTTC | -0.191
137 | CTAACCAC | -0.0645
138 | GATTGCCC | -0.148
139 | CGTTTGTC | -0.062
140 | CTCAAAAC | 0.014
141 | CGTCCTGA | 0.109
142 | CCCTCGTC | -0.193
143 | CAAACCTC | -0.221
144 | CAGTTTAG | -0.0382
145 | CGGGATGA | -0.188
146 | ACAGCTTC | 0.345
147 | GTCTTACA | -0.214
148 | GTAGGGAA | -0.109
149 | GTGGCTGA | 0.0603
150 | GTCTCAAA | 0.0295

Row | Sequence | PBM E-score
151 | GATTCACA | 0.0985
152 | AAAACCTG | -0.0358
153 | GAATCTTA | 0.143
154 | ATAAGTGC | 0.0635
155 | CAAAACCA | 0.0676
156 | GATGAGTA | -0.00303
157 | CAATCTGC | -0.0428
158 | ATTCCGGC | 0.191
159 | CAAACACC | 0.0607
160 | CTATTATC | 0.124
161 | CCTGCCCC | -0.103
162 | CCACTTAG | 0.125
163 | AACGCTCA | -0.0634
164 | GACTCAAA | 0.0253
165 | CTCTAAGA | -0.00019
166 | ACAACATA | 0.0664
167 | AATCAGCA | 0.0527
168 | GACGACCA | 0.0626
169 | CCTTCTGC | -0.132
170 | TAGCTCGA | 0.187
171 | AATTTGTA | 0.0965
172 | CTGATGGC | -0.068
173 | ATTGTTAG | 0.156
174 | GTATTCTA | 0.123
175 | AGGAAACA | 0.0646

Row | Sequence | PBM E-score
176 | AGGATAAA | 0.105
177 | AATTCGCG | -0.00914
178 | ACCAACGC | 0.00771
179 | TCAAAAGA | -0.013
180 | GCAGAACC | 0.0689
181 | CAAATTCG | 0.176
182 | ATAGTTCC | -0.104
183 | AACTAACT | -0.134
184 | GCCGGTAA | 0.0785
185 | CCGGCCTC | -0.103
186 | CATCTCGA | -0.0496
187 | ACCTGCGA | -0.117
188 | CAAATAGG | 0.168
189 | GGCATCAA | 0.0535
190 | GAACTGTA | -0.248
191 | CTGTCAAC | -0.0693
192 | CTGCTCAC | -0.0783
193 | AGACTTGG | -0.0976
194 | ACACGACC | -0.177
195 | GTAGTGCA | -0.243
196 | CCATCACG | -0.132
197 | CAGTGATA | 0.0897
198 | CATCCTCA | 0.168
199 | AATTCCAG | 0.274
200 | AATTTAAG | 0.18

Row | Sequence | PBM E-score
201 | GTATACAA | 0.0979
202 | GCGCATCC | 0.331
203 | AAGAGAGA | 0.0367
204 | GCCGGTAC | -0.114
205 | ATTTCAAG | -0.0053
206 | GGCAGTAC | -0.15
207 | CCATTGGG | -0.0786
208 | GTACGGGA | 0.182
209 | AATCTCAC | -0.0394
210 | ACATGTCC | -0.057
211 | CAGTACAA | 0.0134
212 | AAAAGCTT | -0.057
213 | CATTCCCG | 0.17
214 | ATTCACTC | 0.0286
215 | AAAACCAA | 0.0821
216 | ACTGTTCT | -0.255
217 | ATGAATTA | 0.16
218 | CCTACGTC | -0.0143
219 | CATTAACC | 0.0824
